The full ranking holds about 110,000 compounds; the median of “z-score” is about -0.1, and the highest 2% start at about 2. This is one part of the list. Active and inactive are the calls of the source.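 Rule for the calls: active = z-score in the third read window above 3 or below -3; inactive = the rest.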

For this assay, the target named is Metabotropic glutamate receptor 8 (Rattus norvegicus) (UniProt P70579). Nature of the assay: rat mGluR8 modulators via GIRK flux, primary screen, cell-based, thallium flux, HTS (AID 488969). To be noted: HEK293 rat mGluR8, GIRK (G protein-gated inwardly rectifying potassium channel) thallium flux, FluoZin2; at 10 µM; stronger effect = higher value; submaximal glutamate (EC20) added with thallium.
Sequence of UniProt P70579 (P70579 whole entry, looked up): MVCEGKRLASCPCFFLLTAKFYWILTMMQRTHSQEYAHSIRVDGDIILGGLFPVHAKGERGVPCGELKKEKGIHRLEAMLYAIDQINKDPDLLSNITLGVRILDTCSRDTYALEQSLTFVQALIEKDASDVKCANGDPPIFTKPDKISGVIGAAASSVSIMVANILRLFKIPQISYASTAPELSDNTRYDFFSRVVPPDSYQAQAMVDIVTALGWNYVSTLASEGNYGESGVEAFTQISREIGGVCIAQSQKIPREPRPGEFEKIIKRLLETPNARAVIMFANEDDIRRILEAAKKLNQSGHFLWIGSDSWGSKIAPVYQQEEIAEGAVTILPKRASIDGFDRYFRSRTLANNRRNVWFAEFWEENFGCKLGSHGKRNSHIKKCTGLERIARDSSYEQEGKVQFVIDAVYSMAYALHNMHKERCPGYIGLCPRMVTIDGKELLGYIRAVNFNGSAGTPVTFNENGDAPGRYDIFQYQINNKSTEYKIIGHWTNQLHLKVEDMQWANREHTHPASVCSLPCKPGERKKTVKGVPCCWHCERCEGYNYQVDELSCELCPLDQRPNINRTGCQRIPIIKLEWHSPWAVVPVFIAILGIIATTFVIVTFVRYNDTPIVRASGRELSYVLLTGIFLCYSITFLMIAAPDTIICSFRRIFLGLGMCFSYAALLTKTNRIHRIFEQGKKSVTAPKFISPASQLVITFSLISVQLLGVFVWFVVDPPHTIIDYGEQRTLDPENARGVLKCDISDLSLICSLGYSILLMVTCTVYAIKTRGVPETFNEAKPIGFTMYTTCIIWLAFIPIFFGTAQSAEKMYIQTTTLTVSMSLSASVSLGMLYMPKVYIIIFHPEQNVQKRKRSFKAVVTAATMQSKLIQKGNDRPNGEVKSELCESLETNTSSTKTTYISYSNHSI
For `CC(C)Cc1csc(NC(=O)c2ccccc2Cl)c1C(=O)O`, the z-score worked out at 0.0535.

The molecule `CCOC(=O)C1C(c2ccccc2)C(C(=O)OCC)C1c1ccccc1` (stereo not given) had a z-score of 0.11.

In the case of `CCOC(=O)c1c(C)[nH]c(C(=O)OCC(=O)N2CC(C)OC(C)C2)c1C` (stereo not given), the z-score was -0.0159.

Turning to `Cc1ccc(C(=O)CSc2ccccn2)cc1`, the z-score was found to be 0.961.

Molecule `Cc1ccc(OCC(O)CNS(=O)(=O)c2ccccc2C(=O)O)cc1` (stereo not given) yielded a z-score of 0.372.

With `Cc1c(CCO)sc[n+]1CC(=O)OC12CC3CC(CC(C3)C1)C2`, the z-score is -0.0737.

Regarding `COc1ccc(-n2c(=O)c3c4c(sc3n3c(C)nnc23)COC(C(C)C)C4)cc1` (stereo not given), the z-score was -1.78.

Turning to `CC(=O)c1ccc(NC(=O)Nc2ccc([N+](=O)[O-])cc2C)cc1`, the z-score worked out at 0.0689.

As to `CCOc1ccc(NS(=O)(=O)c2ccc3[nH]cc(C(=O)NCCOC)c(=O)c3c2)cc1`, the z-score was determined as 0.292.

Take `Cn1c(SCc2nc3ccccc3[nH]2)nnc1-c1ccccn1`: the z-score was -0.342.

`COc1ccc(-c2cnnn2-c2ccc(N)cc2)cc1OC`: the z-score stood at 0.24.

Molecule `CC1CC(C)CN(S(=O)(=O)c2ccc(F)c(C(=O)Nc3ccc(Cl)cc3F)c2)C1` (stereo not given) came in with a z-score of -0.0978.

With `O=C(Nc1nccs1)c1cccc(N2C(=O)c3cccc4c([N+](=O)[O-])ccc(c34)C2=O)c1`, the z-score was -0.449.

For the molecule `O=C(Nc1ncccc1Cl)c1ccccc1F`, the z-score was -0.685.

`CCOC(=O)C1CCN(C(=O)CCc2c(C)nc3cc(-c4ccccc4)nn3c2C)CC1` showed a z-score of -0.548.

In the case of `Cc1cccc(NC(=O)C2CCN(S(=O)(=O)c3cccs3)CC2)n1`, the z-score was -0.0808.

As for `Cc1sc(NC(=O)c2cccc([N+](=O)[O-])c2)c(C(N)=O)c1-c1ccc(C(C)(C)C)cc1`, the z-score is -0.0995.

Regarding `Cc1ccc(/C=N/Nc2nc(C(C)(C)C)cs2)o1`, the z-score is -0.109.

Regarding `Cc1c(CN(C)C(=O)c2nn(C)cc2[N+](=O)[O-])cnn1C`, the z-score is -0.232.

The molecule `O=C(Nc1ccccn1)c1cccs1` returned a z-score of 1.07.

`CN(C)c1ccc(N/C=C/C(=O)c2ccco2)cc1`: the z-score was -0.26.

`CCCn1nnc(NC(=O)c2ccc(Cl)cc2Cl)n1` yielded a z-score of -0.0896.

As to `C/C(=N\NC(=O)c1ccc(C)cc1C)c1ccc2c(c1)OCO2`, the z-score is -0.785.

Turning to `Cc1sc(-c2ccncc2)nc1OC(=O)c1ccc(Cl)cc1`, the z-score is -0.12.

Consider `CSc1nnnn1-c1ccc(C(=O)O)cc1`, for which the z-score was -0.129.

For the molecule `Cc1ccc(NC(=O)CCCN2C(=O)c3cccc4cccc(c34)C2=O)cc1`, the z-score was -0.258.

For the molecule `Cc1cc(NC(=O)c2ccc3c(c2)C(=O)N(CCC(C)C)C3=O)no1`, the z-score came to 0.184.

Molecule `CSc1nc(Oc2ccc(Cl)cc2)c2sccc2n1` showed a z-score of -0.00455.

Molecule `CCC(C)(C)n1nnnc1C(c1cc2ccc(C)cc2[nH]c1=O)N(Cc1cccnc1)Cc1ccco1` (stereo not given) came in with a z-score of -0.42.

`CCOC(=O)N1CCN(c2c(NCCc3ccccc3)c(=O)c2=O)CC1`: the z-score amounted to 0.00926.

On to `CC(=O)Nc1ccn(-c2ccccc2)n1`, for which the z-score turned out to be 0.0787.

For the molecule `CCCCc1ccc(-c2ccc(Br)cc2O)nc1`, the z-score is -0.337.

The molecule `O=C(O)CCCCCNc1nc(=S)[nH]c2ccccc12` showed a z-score of 0.209.

Molecule `Cc1nnc(N2CCN(Cc3ccccc3)CC2)[nH]c1=O` had a z-score of -1.08.

For the molecule `Cc1ccc(S(=O)(=O)c2cc3ccccc3oc2=Nc2ccc3c(c2)OCCO3)cc1`, the z-score is -0.356.

As to `CCOC(=O)c1[nH]cc(-c2ccccc2)c1N1CCOCC1`, the z-score worked out at 0.239.

Regarding `Cc1noc(N)c1C(=O)Nc1ccccc1F`, the z-score came out at 0.0468.

The molecule `CCn1c(SCC(=O)N2CCCc3ccccc32)nc2cccnc21` returned a z-score of -0.0554.

For `OCCN(Cc1ccccc1)Cc1cccc(C(F)(F)F)c1`, the z-score turned out to be 0.4.

`CCOC(=O)c1ccc(NC(=S)N2CCSC2c2ccc(Br)cc2)cc1` (stereo not given) gave a z-score of 0.308.

Take `Cc1ccc(NC(=O)N/C=C/c2ccco2)cc1C`: the z-score was -0.78.

`COc1ccc(-c2nc(SC)n(S(=O)(=O)c3ccccc3)n2)cc1` showed a z-score of -0.162.

In the case of `Cc1nc2ccccc2cc1OCc1ccc(F)cc1`, the z-score was -0.0149.

Regarding `Cc1cc(C)n2nc(SCC(=O)c3ccccc3)nc2n1`, the z-score was -1.75.

Take `Cc1ccc(NC(=O)c2ccccc2)cc1OC(=O)c1ccccc1`: the z-score was -0.219.

In turn, `Cn1ncc2c(N3CCOCC3)ncnc21` showed a z-score of -0.172.

`Cc1ccc(S(=O)(=O)N=Nc2c(O)[nH]c3ccccc23)cc1` gave a z-score of 0.0879.

In turn, `COc1ccc(-c2csc(N3CCC(C(N)=O)(N4CCCCC4)CC3)n2)cc1` showed a z-score of 0.829.

As to `CCN(CC)Cc1cc(C(C)=O)ccc1O`, the z-score was determined as 0.0348.

`CCCCSc1cc(=O)n(-c2ccccc2)nc1C(=O)OCC` showed a z-score of -0.331.

For the molecule `Cc1cc(S(=O)(=O)N2CCN(c3ccc(F)cc3)CC2)c(C)s1`, the z-score is -0.128.

Regarding `C=CCOc1ccc(C2C(C(=O)c3ccco3)=C(O)C(=O)N2Cc2cccnc2)cc1` (stereo not given), the z-score was 0.0252.

In turn, `O=C(Nc1cccc2c1CCCC2)c1cc([N+](=O)[O-])ccc1Cl` registered a z-score of -0.115.

For `CC(C)CN(C(=O)CN1CCN(c2ccccc2O)CC1)c1c(N)n(CC(C)C)c(=O)[nH]c1=O`, the z-score was -0.136.

In turn, `OC(COc1ccc2c(c1)OCO2)CN1CCc2ccccc2C1` (stereo not given) displayed a z-score of -1.14.

For the molecule `CCCC(=O)Nc1cc(S(=O)(=O)N(CC)CC)ccc1Cl`, the z-score was -0.29.

Molecule `COCCNC(=O)c1ccc2c(=O)n(CCOC)c(=O)[nH]c2c1` displayed a z-score of -0.446.

Regarding `Cc1ccc(C)n1NC(=O)c1ccccc1Cl`, the z-score came out at 0.093.

In the case of `Cc1nn(C(=O)c2ccccc2)c2c1C(=O)CC(C)(C)C2`, the z-score stood at 2.47.

The molecule `CCOc1ccc(C(=O)NCC2OCCc3ccccc32)cc1` (stereo not given) had a z-score of 0.111.

Take `COc1cccc(CC(=S)N2CCOCC2)c1`: the z-score was -0.198.

The molecule `CCOc1cc(C2NC(=O)NC(C)=C2C(=O)NCc2ccccc2)c(Cl)cc1O` (stereo not given) showed a z-score of -0.854.

`Cc1ccccc1CN1CCN(S(C)(=O)=O)CC1` yielded a z-score of 0.559.

In the case of `CC(C)Oc1ccc(-c2cc(C(=O)NCCN3CCOCC3)c3ccccc3n2)cc1`, the z-score was -1.1.

`Cc1ccc(-c2noc(CCCc3ccccc3)n2)cc1`: the z-score was -0.389.

In turn, `CC(C)(C)C1CCc2c(sc(NC(=O)c3ccco3)c2C(N)=O)C1` (stereo not given) registered a z-score of 0.458.

`Cc1cccc(N2CCN(C(=O)Cn3ccc4ccccc4c3=O)CC2)c1C`: the z-score is -0.483.

As for `COC(=O)c1sc(S(=O)(=O)N2CCC(C(=O)O)CC2)c(C(=O)OC)c1C`, the z-score was -0.11.

Regarding `CC(=O)C1=C(C)Nc2ncnn2C1c1ccc(Cl)cc1` (stereo not given), the z-score came out at 0.0506.

As for `COc1ccc(CN2C(=O)[C@@H]3C(c4ccc(F)cc4)=NO[C@@H]3C2=O)cc1`, the z-score was determined as 0.0203.

For the molecule `Cc1ccc2nc(-c3ccc(NC(=O)COC(=O)c4ccco4)cc3)sc2c1`, the z-score is -0.121.

Take `CCCc1nc2ccccc2c(=O)n1/N=C/c1ccc(O)cc1O`: the z-score was determined as 0.0715.

On to `COCCNC(=O)COC(=O)c1[nH]c(C)c(C(C)=O)c1C`, for which the z-score turned out to be 0.0417.

With `CC(C)OC(=O)c1nnn(-c2nonc2N)c1CSc1ccccn1`, the z-score was -0.642.

In turn, `CCOC(=O)c1cnc2c(OC)cccc2c1N1CCN(c2ccccc2OC)CC1` showed a z-score of 0.407.

In the case of `Cc1ccc(C(=O)NCCCN2CCOCC2)cc1`, the z-score is 0.146.

In turn, `O=C(NCc1cccnc1)C1c2ccccc2C(=O)N1Cc1ccccc1` (stereo not given) displayed a z-score of -0.0928.

For the molecule `COc1cc(C2NC(=O)NC(O)(C(F)(F)F)C2C(=O)c2cccs2)ccc1O` (stereo not given), the z-score is -0.852.

In the case of `Cc1ccc(C(=O)Oc2cc(-c3ccccc3)no2)cc1`, the z-score was found to be 0.454.

For the molecule `O=C(CSc1nnc(-c2ccc(O)cc2)n1Cc1ccco1)c1cccs1`, the z-score was -0.786.

`CCCc1ccc(OCc2ccc(C(=O)OC)o2)c(OC)c1`: the z-score was -0.263.

`Clc1ccc(-n2nnnc2CN2CCCCC2)cc1Cl` displayed a z-score of 0.318.

Regarding `Nn1c(SCC(=O)Nc2ccc(F)cc2)nnc1-c1cccnc1`, the z-score is 0.328.

On to `CN(C)CCNc1ncnc2c1cnn2-c1ccc(Cl)cc1`, for which the z-score was active: 3.51.

As for `Cc1cc(NC(=O)c2oc3ccccc3c2C)ccc1-n1cnnn1`, the z-score worked out at 1.86.

As to `O=C(CSc1nc2ccccc2[nH]1)NCC1CCCO1` (stereo not given), the z-score is -0.0727.

Regarding `Cc1cccc(Sc2c(C=O)c3ccccc3n2C)c1`, the z-score is -0.459.

In turn, `Cc1ccc(CN2CCN(/N=C/c3cccnc3)CC2)cc1` yielded a z-score of 0.00777.

`O=S(=O)(NCC(c1cccnc1)N1CCN(c2ccc(F)cc2)CC1)c1cc(F)ccc1F` (stereo not given) came in with a z-score of -0.359.

For the molecule `COc1ccc(-c2nc(C(N)=O)c3[nH]c(=O)n(-c4cccc(Cl)c4)c3n2)cc1OC`, the z-score was -0.301.

For `CSc1ccc(OC2CCCCC2NS(=O)(=O)c2ccccc2)cc1` (stereo not given), the z-score was -0.0315.

Molecule `Cc1cc(C(=O)NCc2ccccc2)no1` gave a z-score of 0.651.

The molecule `Clc1ccc(Cn2nc(-c3ccccc3)nc2-c2ccccc2)cc1` returned a z-score of -0.283.

Molecule `Cc1ccc(S(=O)(=O)Cn2nnnc2C(CC(C)C)N2CCN(c3ccc(F)cc3)CC2)cc1` (stereo not given) registered a z-score of 0.255.

The molecule `CS(=O)(=O)N1CCN(c2ccc([N+](=O)[O-])c(NCc3ccccc3)c2)CC1` yielded a z-score of -0.131.

As to `CNc1oc(/C=C/c2ccccc2)nc1C#N`, the z-score was -0.214.

`Cn1cc(Br)c(C(=O)NC2C3CC4CC(C3)CC2C4)n1` (stereo not given): the z-score is -0.0702.

The molecule `Cc1ccc([N+](=O)[O-])cc1-c1ccc2cccc(C)c2n1` yielded a z-score of 0.0589.

Take `COc1cccc(/C=C2\C(=O)N(c3cccc(C)c3)C(=O)c3ccccc32)c1`: the z-score is -0.152.

On to `COC(=O)c1ccccc1NC(=O)c1cc2n(n1)C(C(F)F)CC(C(F)F)N2` (stereo not given), for which the z-score was -0.0566.

For the molecule `COc1cccc(NC(=O)c2cc(C(=O)Nc3cccc(OC)c3)n(C)n2)c1`, the z-score is -0.513.

For the molecule `CCNc1nc(NOC)nc(OCC#N)n1`, the z-score was -0.197.

The molecule `CSCCC(NC(=O)c1ccc([N+](=O)[O-])cc1Cl)C(=O)OCC(=O)C12CC3CC(CC(C3)C1)C2` (stereo not given) registered a z-score of 0.0401.

`COc1cc(NC(=O)c2ccco2)c(OC)cc1NC(=O)CSc1nnc(-c2cccs2)n1C` showed a z-score of -1.07.

`CCc1ccc2nc(NC(=O)c3cc(C)on3)sc2c1`: the z-score is active: 10.1.

The molecule `CCC1CCCCN1C(=O)CN1C(=O)CSC1=O` (stereo not given) yielded a z-score of 0.299.

As for `O=C(CSc1nnnn1C1CCCC1)N1CCCc2ccccc21`, the z-score is -0.581.

`O=C(Nc1ccc(-c2nnc(-c3ccccc3)o2)cc1)C1CCCO1` (stereo not given) registered a z-score of -0.525.

`c1ccc(OCc2nn3c(-c4ccccn4)nnc3s2)cc1` registered a z-score of 0.373.

`O=C(Oc1ccc(=O)n(-c2ccccc2)n1)c1ccccc1` came in with a z-score of -0.493.

For the molecule `COc1cccc(-c2nn(-c3ccccc3)cc2CO)c1`, the z-score was determined as 0.851.

`O=C(C1CCN(C2CC(=O)N(c3ccc(F)cc3)C2=O)CC1)N1CCOCC1` (stereo not given) registered a z-score of -0.0657.

Take `Cc1ccc(OCC(=O)Nc2ccc(-c3nc4ncccc4o3)cc2)c(C)c1`: the z-score is -0.404.

`CCC(=O)Nc1ccc2c(c1)nc1n2CCSC1` registered a z-score of 0.0313.

For `COc1ccc(NS(=O)(=O)c2ccc3c(c2)CCC(=O)N3)c(OC)c1`, the z-score turned out to be 0.519.
